From the antibiotic and cytotoxicity screens of Wong et al. (2023)
The other results are listed elsewhere or left out.

Legend:
HSkMC = human skeletal muscle cells; assay: cytotoxicity call (relative viability < 0.9); conditions: 10 µM
HepG2 = assay: cytotoxicity call (relative viability < 0.9); conditions: 10 µM
S. aureus RN4220 = assay: growth inhibition call (relative growth <= 0.2); conditions: 50 µM

O=C(C[C@H]1CC[C@H]2[C@@H](COC[C@@H](O)CN2C(=O)Nc2cccc(F)c2)O1)NCc1ccccc1Cl
inactive: cytotoxicity call (HSkMC) | cytotoxicity call (HepG2) | growth inhibition call (S. aureus RN4220)

C[C@@H]1CN([C@@H](C)CO)C(=O)Cc2cc(NS(=O)(=O)c3ccc(Cl)cc3)ccc2O[C@H]1CN(C)C(=O)Nc1ccc(C(F)(F)F)cc1
inactive: cytotoxicity call (HSkMC) | cytotoxicity call (HepG2) | growth inhibition call (S. aureus RN4220)

C[C@@H]1OC2=C(Cl)C(=O)N3CCC[C@H]3C[C@@]21O
inactive: cytotoxicity call (HSkMC) | cytotoxicity call (HepG2) | growth inhibition call (S. aureus RN4220)

O=C(Nc1cccc2cccnc12)[C@@H]1[C@H](c2ccc(Br)cc2)CC(=O)N1c1ccc(C(F)(F)F)cc1
inactive: cytotoxicity call (HSkMC) | cytotoxicity call (HepG2) | growth inhibition call (S. aureus RN4220)

Cc1noc(C)c1NC(=O)Nc1ccc2c(c1)C(=O)N([C@H](C)CO)C[C@H](C)[C@@H](CN(C)C(=O)NC1CCCCC1)OCCCC[C@@H](C)O2
inactive: cytotoxicity call (HSkMC) | cytotoxicity call (HepG2) | growth inhibition call (S. aureus RN4220)

COc1ccc([Si](C)(C)[C@@H]2[C@@H](CCn3cc([C@H](O)c4ccccc4)nn3)O[C@]3(C(=O)N(Cc4cccc(N5CCOC5=O)c4)c4ccccc43)[C@H]2C)cc1
inactive: cytotoxicity call (HSkMC) | cytotoxicity call (HepG2) | growth inhibition call (S. aureus RN4220)

C[C@@H]1CN([C@H](C)CO)C(=O)c2cc(NS(C)(=O)=O)ccc2O[C@@H](C)CCCCO[C@@H]1CN(C)S(=O)(=O)c1ccc(F)cc1
inactive: cytotoxicity call (HSkMC) | cytotoxicity call (HepG2) | growth inhibition call (S. aureus RN4220)

c1cnc(-c2cn[nH]c2)cn1
inactive: cytotoxicity call (HSkMC) | cytotoxicity call (HepG2) | growth inhibition call (S. aureus RN4220)

C[C@H](CO)N1C[C@H](C)[C@@H](CN(C)S(=O)(=O)c2ccc(Oc3ccccc3)nc2)OCc2cn(nn2)CCCC1=O
inactive: cytotoxicity call (HSkMC) | cytotoxicity call (HepG2) | growth inhibition call (S. aureus RN4220)
